Residue numbers refer to the chain shown, from its start. Names and notes keep the numbering of the source. Values belong to the binder of their own block, whether it stands above or below them.
Biological target: T1, human CTLA-4 (human, UniProt P16410 36-223)
T1 construct: whole, on cells; also called CHO/CTLA-4 cells
Experiment: flow cytometry on CHO/CTLA-4 cells
Procedure: Binding affinity to CD28 was determined using primary human T cells which endogenously express CD28. Binding to PD-L1 was determined using SCC152 cells transduced with human PD-L1. Binding to CTLA-4 was measured using Chinese hamster ovary (CHO) cells stably transduced to express human CTLA-4.
For staining and analysis by flow cytometry, 75,000 human T cells, SCC152/PD-L1 cells, or CHO/CTLA-4 cells were plated in 96-well round-bottom plates. Cells were spun down and resuspended in staining buffer (PBS (phosphate buffered saline), 1% BSA (bovine serum albumin), 1 mM EDTA, and 0.1% sodium azide) for 20 minutes to block non-specific binding. Afterwards, cells were centrifuged, stain buffer aspirated, and then resuspended in 50 μL of a 1:5 serial dilution of each CD80-Fc candidate variant starting at 100 nM ending at 0.8 nM. Primary staining was performed on ice for 60 minutes, before washing cells in […] staining buffer three times. PE-conjugated anti-human Fc (Jackson ImmunoResearch, USA) was diluted 1:250 in 50 μL staining buffer and added to cells and incubated another 30 minutes at 4° C. Cells were washed two times in 150 μL stain buffer and then fixed in 2% formaldehyde/PBS for 5 minutes at room temperature. Samples were analyzed CytoFLEX LX flow cytometer (Beckman Coulter, USA). Median Fluorescence Intensity (MFI) was calculated for each cell type using the CytExpert software from Beckman Coulter.

T1 sequence (P16410 36-223): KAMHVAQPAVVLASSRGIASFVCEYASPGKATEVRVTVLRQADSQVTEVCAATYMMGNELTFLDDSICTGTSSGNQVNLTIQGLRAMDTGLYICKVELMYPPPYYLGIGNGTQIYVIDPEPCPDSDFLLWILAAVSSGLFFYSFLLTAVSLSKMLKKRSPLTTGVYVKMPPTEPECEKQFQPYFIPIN

B2: CD80_190 variant CD80 IgV-Fc (T28Y, M47L) (Fc fusion)
chain: VIHVTKEVKEVATLSCGHNVSVEELAQYRIYWQKEKKMVLTMMSGDLNIWPEYKNRTIFDITNNLSIVILALRPSDEGTYECVVLKYEKDAFKREHLAEVTLSVKADGSGGGGS[omitted - human IgG4 Fc with S228P (EU numbers)]
notes: also called CD80_190-Fc
- MFI at 0.8 nM: 300000 MFI
- MFI at 4 nM: 468000 MFI
- MFI at 20 nM: 544000 MFI
- MFI at 100 nM: 538000 MFI
- fold change vs WT CD80 at 20 nM: 0.66 fold

B3: CD80_188 variant CD80 IgV-Fc (E35D, V68L, L85E) (Fc fusion)
chain: B2 chain with Y28T, E35D, L47M, V68L, L85E
notes: also called CD80_188-Fc
- MFI at 0.8 nM: 195000 MFI
- MFI at 4 nM: 352000 MFI
- MFI at 20 nM: 490000 MFI
- MFI at 100 nM: 525000 MFI
- fold change vs WT CD80 at 20 nM: 0.59 fold

B4: CD80_200 variant CD80 IgV-Fc (K9N, E10R, H18V, T28Y, A71G) (Fc fusion)
chain: B2 chain with K9N, E10R, H18V, L47M, A71G
notes: also called CD80_200-Fc
- MFI at 0.8 nM: 307000 MFI
- MFI at 4 nM: 478000 MFI
- MFI at 100 nM: 507000 MFI
- fold change vs WT CD80 at 20 nM: 0.28 fold

B5: CD80_211 variant CD80 IgV-Fc (V11Y, T28R, E35G, M47L, A71G) (Fc fusion)
chain: B2 chain with V11Y, Y28R, E35G, A71G
notes: also called CD80_211-Fc
- MFI at 0.8 nM: 273000 MFI
- MFI at 4 nM: 393000 MFI
- MFI at 20 nM: 417000 MFI
- MFI at 100 nM: 414000 MFI
- fold change vs WT CD80 at 20 nM: 0.5 fold

B9: CD80_213 variant CD80 IgV-Fc (V11Y, V68T) (Fc fusion)
chain: B2 chain with V11Y, Y28T, L47M, V68T
notes: also called CD80_213-Fc
- MFI at 0.8 nM: 223000 MFI
- MFI at 4 nM: 455000 MFI
- MFI at 20 nM: 531000 MFI
- MFI at 100 nM: 523000 MFI
- fold change vs WT CD80 at 20 nM: 0.64 fold

B12: CD80_187 variant CD80 IgV-Fc (V11Y, H18Y, E35G, L85Q) (Fc fusion)
chain: B2 chain with V11Y, H18Y, Y28T, E35G, L47M, L85Q
notes: also called CD80_187-Fc
- MFI at 0.8 nM: 242000 MFI
- MFI at 4 nM: 571000 MFI
- MFI at 20 nM: 616000 MFI
- MFI at 100 nM: 614000 MFI
- fold change vs WT CD80 at 20 nM: 0.74 fold

B13: CD80_212 variant CD80 IgV-Fc (K9R, E10A, E35G, V68T, T101K) (Fc fusion)
chain: B2 chain with K9R, E10A, Y28T, E35G, L47M, V68T, T101K
notes: also called CD80_212-Fc
- MFI at 0.8 nM: 220000 MFI
- MFI at 4 nM: 331000 MFI
- MFI at 20 nM: 377000 MFI
- MFI at 100 nM: 403000 MFI
- fold change vs WT CD80 at 20 nM: 0.45 fold

B16: CD80_189 variant CD80 IgV-Fc (E10G, V11W, M47V, L85E) (Fc fusion)
chain: B2 chain with E10G, V11W, Y28T, L47V, L85E
notes: also called CD80_189-Fc
- MFI at 0.8 nM: 3630 MFI
- MFI at 4 nM: 13100 MFI
- MFI at 20 nM: 46800 MFI
- MFI at 100 nM: 131000 MFI
- fold change vs WT CD80 at 20 nM: 0.06 fold

Next, values leading:

- MFI at 0.8 nM: 286000 MFI
- MFI at 4 nM: 481000 MFI
- MFI at 20 nM: 559000 MFI
- MFI at 100 nM: 518000 MFI
- fold change vs WT CD80 at 20 nM: 0.67 fold
B1: CD80_197 variant CD80 IgV-Fc (V11Y, E35D, Y87Q, T101R) (Fc fusion)
chain: B2 chain with V11Y, Y28T, E35D, L47M, Y87Q, T101R
notes: also called CD80_197-Fc

- MFI at 0.8 nM: 180000 MFI
- MFI at 4 nM: 400000 MFI
- MFI at 20 nM: 551000 MFI
- fold change vs WT CD80 at 20 nM: 0.66 fold
B6: CD80_214 variant CD80 IgV-Fc (E10G, E35G, D46E, M47V, V68M, T101K) (Fc fusion)
chain: B2 chain with E10G, Y28T, E35G, D46E, L47V, V68M, T101K
notes: also called CD80_214-Fc

- MFI at 0.8 nM: 27500 MFI
- MFI at 4 nM: 79400 MFI
- MFI at 20 nM: 219000 MFI
- MFI at 100 nM: 453000 MFI
- fold change vs WT CD80 at 20 nM: 0.26 fold
B7: CD80_208 variant CD80 IgV-Fc (V11Y, E35G, M42G, F59S) (Fc fusion)
chain: B2 chain with V11Y, Y28T, E35G, M42G, L47M, F59S
notes: also called CD80_208-Fc

- MFI at 0.8 nM: 329000 MFI
- MFI at 4 nM: 523000 MFI
- MFI at 20 nM: 585000 MFI
- MFI at 100 nM: 595000 MFI
- fold change vs WT CD80 at 20 nM: 0.71 fold
B8: CD80_184 variant CD80 IgV-Fc (V11Y, A26Q, M47L, A71G, Y87R) (Fc fusion)
chain: B2 chain with V11Y, A26Q, Y28T, A71G, Y87R
notes: also called CD80_184-Fc

- MFI at 0.8 nM: 293000 MFI
- MFI at 4 nM: 534000 MFI
- MFI at 20 nM: 604000 MFI
- MFI at 100 nM: 591000 MFI
- fold change vs WT CD80 at 20 nM: 0.73 fold
B10: CD80_199 variant CD80 IgV-Fc (E10G, H18Y) (Fc fusion)
chain: B2 chain with E10G, H18Y, Y28T, L47M
notes: also called CD80_199-Fc

- MFI at 0.8 nM: 332000 MFI
- MFI at 4 nM: 575000 MFI
- MFI at 20 nM: 645000 MFI
- MFI at 100 nM: 634000 MFI
- fold change vs WT CD80 at 20 nM: 0.78 fold
B11: CD80_186 variant CD80 IgV-Fc (E7K, V11W, N63H, A71G, Y87K) (Fc fusion)
chain: B2 chain with E7K, V11W, Y28T, L47M, N63H, A71G, Y87K
notes: also called CD80_186-Fc

- MFI at 0.8 nM: 271000 MFI
- MFI at 4 nM: 436000 MFI
- MFI at 20 nM: 497000 MFI
- MFI at 100 nM: 503000 MFI
- fold change vs WT CD80 at 20 nM: 0.6 fold
B14: CD80_204 variant CD80 IgV-Fc (H18V, V20I, T28Y, E35G, M47V, R73E) (Fc fusion)
chain: B2 chain with H18V, V20I, E35G, L47V, R73E
notes: also called CD80_204-Fc

- MFI at 0.8 nM: 7800 MFI
- MFI at 4 nM: 27500 MFI
- MFI at 20 nM: 59000 MFI
- MFI at 100 nM: 254000 MFI
- fold change vs WT CD80 at 20 nM: 0.07 fold
B15: CD80_191 variant CD80 IgV-Fc (V11Y, T28Y, M47L, V68L, L85E) (Fc fusion)
chain: B2 chain with V11Y, V68L, L85E
notes: also called CD80_191-Fc
